The source of these data is US11541030B2, “Methods for the treatment of inflammation associated with infection” (NOXOPHARM LIMITED, priority 2020, dated 2023).

Assay [1] has as its target T1, mouse STING (Mus musculus, UniProt Q3TBT3).
T1 sequence (Q3TBT3 1-378): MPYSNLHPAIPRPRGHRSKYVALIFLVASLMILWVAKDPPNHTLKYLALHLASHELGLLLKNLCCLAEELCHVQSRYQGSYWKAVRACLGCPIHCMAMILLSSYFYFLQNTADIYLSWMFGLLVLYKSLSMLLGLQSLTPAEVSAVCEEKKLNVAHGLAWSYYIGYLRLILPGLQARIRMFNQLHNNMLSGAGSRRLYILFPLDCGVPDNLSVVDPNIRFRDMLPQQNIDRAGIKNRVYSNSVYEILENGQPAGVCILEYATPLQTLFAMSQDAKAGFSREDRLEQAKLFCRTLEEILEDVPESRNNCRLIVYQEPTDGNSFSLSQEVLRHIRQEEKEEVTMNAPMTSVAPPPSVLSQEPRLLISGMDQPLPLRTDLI
The assay can be described thus: DMXAA-induced ISRE-luciferase in L929 cells. The note with it: 2.5 uM IDX; DMXAA up to 100 ug/ml. As for the experimental part: FIG. 2: Mouse L929 cells stably expressing an IFN-stimulated responsive element (ISRE)-luciferase reporter were pre-treated for 1 h with indicated doses of IDX, prior an 8 h stimulation with 20 ug/ml DMXAA. Cells were lysed and firefly luciferase was quantified at the end of the experiment. Data shown are averaged from 2 independent experiments in biological triplicate, relative to DMXAA and DMSO only condition control (±SEM).
FIG. 3: Similar to FIG. 2, the L929 cells were pre-treated with 2.5 uM of IDX, prior to stimulation with increasing concentrations of DMXAA for 8 h. Luciferase assays were carried out at 8 hours.
Cell culture and reagents.
To determine whether IDX could inhibit STING signalling more directly, mouse L929 cells stably expressing an IFN-stimulated-responsive luciferase (ISRE-Luc) were pretreated with IDX at various doses for 1 h, prior to DMXAA stimulation for 8 h (FIG. 2). DMXAA is an activator of mouse STING (11).
The inhibitory effect of IDX on IL-6 is not surprising as it is well known that the molecule IDX is closely related in structure to genistein, which inhibits NF-κB signalling. The IDX induced reduction in IL-6 production may therefore be the result from an inhibition of the NF-κB signalling branch downstream of STING. […]

Assay [2] relates to non-typeable Haemophilus influenzae (NTHi) induced inflammation in THP-1 cells. The assay can be described thus: NTHi-induced TNF-α in PMA-differentiated THP-1 cells. The note with it: PMA-differentiated THP-1, 2.5 uM IDX 1 hour, NTHi 100 CFU/cell.
Assay [3] deals with HOS cells (STING). The assay is described as follows: CPT-induced IL-6 in HOS cells. The assay is classed as cell-based, human. Conditions: 0.2 μM CPT 48 hours, H151 1.8 μM, IDX 1.25 μM.
The test system of assay [4] is PC-3 cells (STING). The assay is described as follows: CPT-induced IL-6 in PC-3 cells. Conditions: PC-3, 0.5 μM CPT 20 hours; H151 1.8 μM, IDX 1.25 μM. The assay is classed as cell-based, human.
In assay [5] the test system is MG63 cells (STING). The assay is described as follows: CPT-induced IL-6 in MG63 cells. The note with it: MG63, 0.1 μM CPT 48 hours; IDX 7.5, 5, 2.5 and 1.25 μM.
Assay [6] has as its system MG-63 cells (cGAS-STING). The assay can be described thus: ISD transfection (cGAS-STING activation) in MG-63 cells. Conditions: MG-63 pre-treated for 48 hours with IDX (1.25 μM), ISD 2.5 μg/mL.

On to `Oc1ccc(C2=Cc3ccc(O)cc3OC2)cc1` [IDX, 2H-1-Benzopyran-7-0,1,3-(4-hydroxyphenyl)], for which the “effect of increasing DMXAA on inhibition of ISRE-Luc” value in assay [1] is reported as “did not change the efficacy of the inhibition”. The “NTHi induced inflammation (TNF-α ELISA)” value in assay [2] was “potent anti-inflammatory effect”. For the same compound, the results for the “CPT-induced IL-6 levels” value in assay [3], in assay [4] and in assay [5] were “strongly reduced”, “significantly reduced” and “strongly reduced”, respectively. Further, the “IL-6 production upon transfection of ISD” value in assay [6] is recorded as “decreased”.
In the case of `CCc1ccc(NC(=O)Nc2c[nH]c3ccccc23)cc1` [H151, reference compound], the “CPT-induced IL-6 levels” value was “inhibition” in assay [3] and “dampened” in assay [4].
On to `CC(=O)Oc1ccccc1C(=O)O` [aspirin], for which the “CPT-induced IL-6 levels” value in assay [4] is recorded as “not inhibited”.
